Test results as given in the antibiotic and cytotoxicity screens of Wong et al. (2023).
This is one part of the list.

Assays:
[1] = system: HSkMC (human skeletal muscle cells); assay: cytotoxicity call (relative viability < 0.9); conditions: 10 µM
[2] = system: HepG2; assay: cytotoxicity call (relative viability < 0.9); conditions: 10 µM
[3] = system: S. aureus RN4220; assay: growth inhibition call (relative growth <= 0.2); conditions: 50 µM

CC(C)CN1CCN[C@@H](C)C1=O
inactive: cytotoxicity call [1] | cytotoxicity call [2] | growth inhibition call [3]

O=C(C[C@H]1C[C@H]2c3cc(NS(=O)(=O)c4ccc(F)cc4)ccc3O[C@H]2[C@@H](CO)O1)N1CCCCC1
inactive: cytotoxicity call [1] | cytotoxicity call [2] | growth inhibition call [3]

C[C@H](CO)N1C[C@H](C)[C@H](CN(C)S(=O)(=O)c2ccc(F)cc2)Oc2ccc(NS(=O)(=O)c3ccc(F)cc3)cc2C1=O
inactive: cytotoxicity call [1] | cytotoxicity call [2] | growth inhibition call [3]

O=C(C[C@@H]1CC[C@@H]2[C@H](COC[C@@H](O)CN2S(=O)(=O)c2ccccc2F)O1)NCc1ccccc1Cl
inactive: cytotoxicity call [1] | cytotoxicity call [2] | growth inhibition call [3]
